Test results from PubChem BioAssay AID493208 (National Center for Advancing Translational Sciences (NCATS), 2011).
The whole screen tested about 44,000 compounds, of which about 340 (0.77%) were called active. Another 5% or so got no clear call; they are omitted. The call rests on the fitted dose curve; in most records, active means well fitted inhibition curve with a large enough effect; inconclusive means small, poorly fitted or top-dose-only effect; inactive means flat fitted curve, though single readings scatter. The list shows a part of the results.

experiment: Acumen qHTS Assay for Inhibitors of the mTORC1 Signaling Pathway in MEF (Tsc2-/-, p53-/-) Cells: Sytravon; conditions: phospho-rpS6 immunofluorescence/PI, 24 h; series mostly up to 38.3 µM; activity change, negative = inhibition: at the top concentration;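 further: plate controls were DMSO for no effect and rapamycin for full effect; nearly all actives have a fitted effect of over 50% in size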
Summary of the method: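 Cell-based qHTS: Tsc2-/- p53-/- MEF, 24 h cpd, 37 °C; fix/perm, anti-phospho-S6 Alexa-488 + PI; Acumen 488 nm scan; pS6/PI ratio, % positive cells; rapamycin 7.5 nM = inhibition ref; PI count = viability.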

Activity change, negative = inhibition, inactive:
COc1ccc(N2CCN(C(=O)c3cc4c(s3)-c3ccccc3OC4)CC2)cc1 -10.7%
CCOC(=O)C1CCN(S(=O)(=O)c2csc(C(N)=O)c2)CC1 -3.82%
Cc1ccc(-c2cn3c(n2)sc2cc(C(=O)NC(C)C45CC6CC(CC(C6)C4)C5)ccc23)cc1 (stereo unspecified) 6.41%
COc1ccc(N2CC(NC(=O)c3ccc(Br)o3)CC2=O)cc1 (stereo unspecified) 0.141%
Cc1ccccc1C(=O)Nc1nc(-c2nnn(-c3ccc(C(C)C)cc3)c2C)ns1 -12.3%
O=C(Cn1ncc2c([nH]c3ccccc32)c1=O)NCC1CCN(Cc2ccc(F)cc2)CC1 -0.0966%
CCOc1ccccc1CNC(=O)C1CCN(S(=O)(=O)c2ccc3c(ccn3C)c2)CC1 -10.5%
CCOc1ccc(C(=O)NCCS(=O)(=O)N2CCN(c3ccccc3F)CC2)cc1OCC -0.0481%
Cc1cc(Cl)ccc1NC(=O)CN(c1ccccc1Br)S(C)(=O)=O 9.64%
COc1ccc(CN2CCN(c3ncnc4sc5c(c34)CC(C)CC5)CC2)cc1F (stereo unspecified) -1.25%
Cc1ccc(C)n1-c1nnc(N2CCCC(C(=O)NCc3cccc(Cl)c3)C2)s1 (stereo unspecified) -11.8%
CC1=C(C(=O)NCc2ccc(Cl)cc2)C2(CCCCC2)OC1=O 5.49%
CCn1cc(S(=O)(=O)c2cccc(Cl)c2)c(=O)c2cc(F)c(N3CCN(c4ccccc4)CC3)cc21 0.789%
Cc1nc2ccn(Cc3cccs3)c(=O)c2cc1C(=O)Nc1ccccc1 -10.2%
Cc1ccc(Cl)cc1N1CCN(S(=O)(=O)c2ccc3c(c2)CCCN3C(=O)C2CCC2)CC1 -4.22%
O=C(NCCc1ccccc1)c1cc(Sc2cccc(Cl)c2)nc2ccccc12 15.4%
COc1ccc(NS(=O)(=O)c2ccc3[nH]c4c(c3c2)CCCC4)cc1Cl -0.232%
Cc1ccc(CN2C(=O)c3oc4ccc(C)cc4c(=O)c3C2c2ccc(O)cc2)cc1 (stereo unspecified) 1.36%
COc1cc(OC)c(NC(=O)Cn2c(=O)oc3cc(S(=O)(=O)N4CCCC4)ccc32)cc1Cl -7.33%
CCC(C)NC(=O)c1nn(-c2ccc(C)cc2)c(=O)n(C)c1=O (stereo unspecified) -4.21%
COc1ccc(-c2cc(C(F)(F)F)n3nc(C(=O)Nc4ccccc4SC)cc3n2)cc1OC 6.32%
Cc1ccc(OCC(=O)N(Cc2ccco2)Cc2ccc(C)o2)cc1 4.37%
COc1cc2c(=O)n(CCC(=O)NCC3CCCO3)c(=O)n(CC(=O)Nc3ccc(C)c(C)c3)c2cc1OC (stereo unspecified) -9.19%
COc1cccc(CCNC(=O)c2c(O)nc3ccccn3c2=O)c1 0.196%
CC(C)c1cccc(OCCn2c(-c3ccc(Cl)cc3)nc3ccccc3c2=O)c1 -5.14%
CCOc1ccccc1NC(=O)c1cnn2c(C(F)F)cc(-c3ccccc3)nc12 -18.3%
COCCCNC(=O)C1CCN(c2nn3cc(-c4ccc(F)cc4)nc3s2)CC1 -1.87%
Cc1ccccc1C(=O)OCc1cc(=O)n2nc(-c3cccs3)sc2n1 -5.82%
CC1=C(C(=O)Nc2ccccc2)C(c2cccs2)n2nc(SCc3ccccc3F)nc2N1 (stereo unspecified) -19.5%
Cc1ccc(C)c(NC(=O)c2cc(S(=O)(=O)N3CCCCCC3)ccc2F)c1 7.38%
O=C(CSc1nnc(NC(=O)Nc2ccccc2)s1)Nc1cccc(F)c1 -0.299%
Cn1cc(S(=O)(=O)c2cccc(Cl)c2)c(=O)c2cc(F)c(N3CCN(c4ccccc4)CC3)cc21 0.359%
Cc1ccc2c(=O)c(C(=O)c3cccc(Cl)c3)cn(CC(=O)Nc3ccc4c(c3)OCCO4)c2n1 -7.53%
COc1ccc(CCCc2nnc(SCC(=O)Nc3ccc(OC)cc3)o2)cc1 -17.5%
O=C(Nc1cc(F)ccc1F)N1CCC(CN2CCCC2)CC1 4.16%
CN1C(=O)Cc2cc(S(=O)(=O)CCC(=O)Nc3ccc(F)c(Cl)c3)ccc21 -6.15%
CCCc1nn2c(=O)cc(COC(=O)c3ccccc3NC(=O)c3ccc(Cl)cc3)nc2s1 -1.34%
CCc1ccccc1Nc1cc(C(=O)NC(C)c2ccccc2)c2ccccc2n1 (stereo unspecified) -1.18%
Cc1ccc(NC(=O)C(C)Sc2nc(=O)cc(N)n2-c2ccccc2)cc1 (stereo unspecified) -6.5%
CCOC(=O)c1cccc(NC(=O)CCn2nc(C)c(S(=O)(=O)N3CCCCC3)c2C)c1 0%
CCCC(=O)Nc1ccc(-c2nc3ncccc3o2)cc1C -0.146%
CCOC(=O)c1ccccc1NC(=O)N1CCC(CN2CCCCC2)CC1 0%
CCOc1ccc(NC(=O)CN2CCCN(Cc3cc(C)ccc3C)S2(=O)=O)cc1 -25.6%
CCOc1ccc(NC(=O)C2CCN(c3nnc(-n4c(C)ccc4C)s3)CC2)cc1 -1.4%
COCCNC(=O)c1cccc(-n2c(C)nc3cccnc32)c1 -1.23%
Cc1nc(-c2cccnc2)sc1CCNS(=O)(=O)c1ccc(F)cc1 -14.2%
Cc1cc(S(=O)(=O)Nc2ccc(-c3ccc(N4CCCCCC4)nn3)cc2)c(C)cc1Cl 0.88%
COc1ccc2c(CNCCc3ccco3)c(C(=O)O)n(Cc3ccccc3)c2c1 -0.033%
COc1ccc(-c2cc(C(F)(F)F)nc(SCC(=O)NCCc3ccccc3)n2)cc1OC -21.7%
CCc1sc(Nc2cccc(C)c2C)nc1-c1cc2cccc(OC)c2oc1=O -1.83%
COc1cc(OC)cc(-n2c(=O)c3sccc3n(Cc3c(C)cc(C)cc3C)c2=O)c1 -1.33%
Cc1cccc(N2CCN(C(=O)CCn3c(=O)c4cccn4c4cccnc43)CC2C)c1 (stereo unspecified) -11.1%
O=C(Nc1cccc(Cl)c1)c1cc2c(=O)[nH]c3ccccc3c2s1 -8.06%
COc1cccc(C(=O)Nc2cccc(-c3cn4c(C)csc4n3)c2)c1OC 9.09%
Cc1cccc(-c2nc3c4ccccc4nc(N4CCN(c5cc(C)ccc5C)CC4)n3n2)c1 -0.199%
CCOc1ccc(-c2nn(CC(=O)NC3CCCC3)c3c2cnc2ccc(F)cc23)cc1 -4.29%
CCc1ccccc1NC(=O)c1cnc2sc(N3CCCC3)nn2c1=O 0.908%
O=C(Nc1ccc(-c2cn3cccnc3n2)cc1)c1cc(Br)ccc1Cl 0.0194%
Cc1nnc(N2CCCC(C(=O)NCCc3ccc(Cl)cc3)C2)c2nn(-c3ccccc3)c(C)c12 (stereo unspecified) -4.93%
COc1cccc(N2CCN(C(=O)Cn3c(-c4cccs4)cc4ccccc43)CC2)c1 -11.4%
CC1=C(C(=O)Nc2ccc(C)cc2C)C(c2cccs2)n2nc(SCc3ccccc3Cl)nc2N1 (stereo unspecified) -5.82%
